Measurements taken from ChEMBL document CHEMBL1201862, “PubChem BioAssay data set” (2004).
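Tested at 5 concentrations; 48 h exposure; 96-well plates; endpoints linearly interpolated, else capped at highest concentration. The concentration for 50% growth inhibition is given as GI50.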 Activity calls are given as the source filed them. Cut-off read from the data, not from the text of the source: active = GI50 up to about 1.1 µM and inactive = higher.

Tests used:
Assay in all cases: NCI anticancer screen, dose series, 48 h
[1] = tested on: OVCAR-5
[2] = tested on: NCI-H23
[3] = tested on: Malme-3M
[4] = tested on: Hs-578T
[5] = tested on: UO-31
[6] = tested on: LOX IMVI
[7] = tested on: T47D
[8] = tested on: 786-0
[9] = tested on: MDA-MB-435
[10] = tested on: EKVX
[11] = tested on: SNB-75
[12] = tested on: K562
[13] = tested on: A498
[14] = tested on: COLO 205
[15] = tested on: HCC 2998
[16] = tested on: OVCAR-3
[17] = tested on: SK-OV-3
[18] = tested on: HOP-92
[19] = tested on: OVCAR-4
[20] = tested on: SF-295
[21] = tested on: MDA-MB-231
[22] = tested on: CAKI-1
[23] = tested on: TK-10
[24] = tested on: NCI-H522
[25] = tested on: SF-539
[26] = tested on: SW-620
[27] = tested on: HT-29
[28] = tested on: M14
[29] = tested on: DU-145
[30] = tested on: HL-60
[31] = tested on: NCI-H460
[32] = tested on: U-251
[33] = tested on: PC-3
[34] = tested on: SK-MEL-2
[35] = tested on: NCI-H226
[36] = tested on: IGROV-1
[37] = tested on: MCF7
[38] = tested on: NCI/ADR-RES
[39] = tested on: A549
[40] = tested on: RPMI-8226
[41] = tested on: SF-268
[42] = tested on: KM12
[43] = tested on: CCRF-CEM
[44] = tested on: MOLT-4
[45] = tested on: SK-MEL-28
[46] = tested on: HCT-15
[47] = tested on: SK-MEL-5
[48] = tested on: ACHN
[49] = tested on: HOP-62
[50] = tested on: UACC-62

In the case of `COc1cc2c(cc1OC)-c1[nH]c3ccccc3c1CC(=O)N2`, the GI50 [1] is reported as inactive: 54.2 µM, the GI50 [2] is reported as inactive: 19 µM and the GI50 [3] is reported as inactive: 31.2 µM. The GI50 [4] was active: 0.622 µM, the GI50 [5] was inactive: 21.9 µM and the GI50 [6] was inactive: 26.1 µM. For the same compound, the GI50 [7] was inactive: 71.9 µM, the GI50 [8] was inactive: 42.4 µM and the GI50 [9] was inactive: 24.2 µM. The GI50 [10] was inactive: 21 µM, the GI50 [11] was inactive: 11.8 µM and the GI50 [12] was inactive: 79.3 µM. The GI50 [13] was inactive: 30.6 µM, the GI50 [14] was inactive: 20.9 µM and the GI50 [15] was inactive: 27.7 µM. For the same compound, the GI50 [16] was inactive: 25.6 µM, the GI50 [17] was inactive: 47.1 µM and the GI50 [18] was inactive: > 100 µM. For the same compound, the GI50 [19] was inactive: 65 µM, the GI50 [20] was inactive: 35.5 µM and the GI50 [21] was inactive: 70.3 µM. The GI50 [22] was inactive: 19.4 µM, the GI50 [23] was inactive: 59.4 µM and the GI50 [24] was inactive: 20.6 µM. The GI50 [25] was inactive: 26.4 µM, the GI50 [26] was inactive: 59 µM and the GI50 [27] was inactive: 24.9 µM. The GI50 [28] was inactive: 37.3 µM, the GI50 [29] was inactive: 50 µM and the GI50 [30] was inactive: > 100 µM. The GI50 [31] was inactive: 27.7 µM, the GI50 [32] was inactive: 49.4 µM and the GI50 [33] was inactive: 29.9 µM. For the same compound, the GI50 [34] was inactive: 31.8 µM, the GI50 [35] was inactive: 26.6 µM and the GI50 [36] was inactive: 7.19 µM. The GI50 [37] was inactive: 39.4 µM, the GI50 [38] was inactive: 23.2 µM and the GI50 [39] was inactive: 31.9 µM. The GI50 [40] was inactive: 48.9 µM, the GI50 [41] was inactive: 52.2 µM and the GI50 [42] was inactive: 20.7 µM. For the same compound, the GI50 [43] was inactive: > 100 µM, the GI50 [44] was inactive: 36.6 µM and the GI50 [45] was inactive: 31.2 µM. The GI50 [46] was 33.5 µM, the GI50 [47] was inactive: 28.4 µM and the GI50 [48] was inactive: 22.5 µM. For the same compound, the GI50 [49] was inactive: 40.3 µM and the GI50 [50] was inactive: 27.4 µM.
